Consider one substance from FireProtDB (doi:10.1021/bi982078m).

The conditions of the series: Gallus gallus, pH 2, 25 °C, Absorbance, HCl, reversible: yes.

For the substance “Lysozyme C wild type (sequence not shown)”, for the setting “GdnHCl, KCl 0.1-1.0 M”, the denaturant m value stood at 2.03 kcal/mol/M, the “denaturant midpoint (higher = more stable)” value (“denaturant midpoint” for short) amounted to 2.06 M and the unfolding free energy came to 4.18 kcal/mol. For the setting “Urea, KCl 0.30-0.50 M”, the denaturant m value is 1.1 kcal/mol/M, the “denaturant midpoint” value was 3.98 M and the unfolding free energy is 4.38 kcal/mol. For the setting “Urea, KCl 0.75-1.00 M”, the denaturant m value came out at 1.13 kcal/mol/M, the “denaturant midpoint” value is 4.68 M and the unfolding free energy worked out at 5.29 kcal/mol.
